Results reported in PubChem BioAssay AID1240 (Sanford-Burnham Center for Chemical Genomics, 2008).
Out of some 50,000 compounds screened, about 800 (1.6%) showed an effect of 50% or more. Some of the results follow.

Biological target: Bcl-2-like protein 10 (Homo sapiens) (UniProt Q9HD36)
Assay: TR3 peptide-Bcl-B binding displacers, biochemical primary FP assay, phenotype converters (AID 1240);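 further: 0% = Bcl-B with tracer peptide and DMSO and 100% = tracer peptide lacking Bcl-B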
Conditions: GST-Bcl-B / FITC-TR3 peptide fluorescence polarization; stronger effect = higher value; compound at 3.75 mg/L

UniProt Q9HD36, sequence (Q9HD36 whole entry, looked up): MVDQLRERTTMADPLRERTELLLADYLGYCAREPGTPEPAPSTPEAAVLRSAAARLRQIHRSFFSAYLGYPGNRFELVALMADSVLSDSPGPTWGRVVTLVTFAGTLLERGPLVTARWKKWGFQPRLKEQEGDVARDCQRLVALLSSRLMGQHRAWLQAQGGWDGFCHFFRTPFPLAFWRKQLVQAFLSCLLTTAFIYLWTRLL

SMILES | displacement [%]
Fc1ccc(-c2cc(-c3ccccc3)nc(N/N=C\c3ccco3)n2)cc1 | -11
CCOc1ccc(NC(=O)c2cccc(C(F)(F)F)c2)c([N+](=O)[O-])c1 | 9.2
CCN(CC)c1ccc(NS(=O)(=O)c2ccc(Cl)cc2)cc1 | 5.9
Cc1cccc(C)c1NC(=O)CSc1nc2ccccc2s1 | -6.4
COc1ccc(/C=N/NC(=O)CCNc2n[nH]c(=O)[nH]c2=O)c(OC)c1 | 3.5
COc1cc(/C=C2/C(=O)NC(=S)N(c3ccccc3F)C2=O)ccc1OCc1ccc(C(=O)O)cc1 | 13.1
COC(=O)c1ccc(OCC(=O)Nc2ncccn2)cc1 | -6
Cc1ccc(S(=O)(=O)/N=C(/Nc2ccc([N+](=O)[O-])cc2)c2ccccc2)cc1 | 10.6
CCOc1ccc(/C=c2\sc3nc4ccccc4n3c2=O)cc1Cl | 19.1
Fc1ccc(OCCN2CCCCC2)cc1 | 0.5
O=C1C(Nc2ccc(F)cc2)=CC(c2ccccc2[N+](=O)[O-])N1c1ccc(F)cc1 (centres undefined) | 3.3
Cc1cc([N+](=O)[O-])ccc1-c1ccc(C(=O)Nc2ccc(Cl)cc2)o1 | 45.8
CC(=O)c1ccc(NC(=O)c2cc3nc(-c4ccc(Br)cc4)cc(C(F)(F)F)n3n2)cc1 | 28.6
Cc1cccc(NC(=O)c2cc(-c3ccc(Cl)cc3)nc3ccccc23)n1 | 0.4
CCC1=NN2C(=N)/C(=C/c3ccc(-c4ccc(F)c(Cl)c4)o3)C(=O)N=C2S1 | -0.2
COc1cc(Br)c(/C=C2/SC(=S)NC2=O)cc1OC | 0.7
FC(F)(F)c1ccccc1CN1CCN(C2CCCC2)CC1 | -2.8
COc1ccc(CC(=O)Nc2sc3c(c2C(=O)Nc2ccccc2Cl)CCCCC3)cc1 | 9
COc1ccc(-c2cc(C(=O)Nc3cccc(F)c3)c3ccccc3n2)cc1OC | -9.6
O=C(c1nn2c(C(F)(F)F)cc(-c3cccs3)nc2c1Br)N1CCOCC1 | -0.7
CCCC(=O)Nc1ccc(NC(=O)COc2ccccc2C)cc1 | 7.1
O=C(N/N=C/c1ccco1)c1ccc(C(=O)N/N=C/c2ccco2)cc1 | 27.6

SMILES | displacement [%]
Cc1cc(=O)[nH]c(SCC(=O)Nc2ccc(S(N)(=O)=O)cc2)n1 | -8.3
COC(=O)c1ccc(N2C(=O)C3C4C=CC(C5CC45)C3C2=O)cc1 (centres undefined) | 12.9
C/C=C/COC(=O)C1=C(C)NC(=O)NC1c1ccc(F)cc1 (centres undefined) | 2.5
COc1ccc(-c2cc(C(F)(F)F)n3ncc(C(=O)Nc4cc(Cl)ccc4O)c3n2)cc1 | -1.1
COc1cccc(C(CC(=O)O)NC(=O)c2ccccc2)c1 (centres undefined) | -12.6
O=C(Nc1ccc(Cc2ccc(NC(=O)c3ccccc3)c(Cl)c2)cc1Cl)c1ccccc1 | 28.7
CC1CCCC(C)N1CC(O)COCc1ccc2c(c1)OCO2 (centres undefined) | -1
CCC(=O)Nc1ccc(C(=O)n2nc(C)cc2C)cc1 | -8.3
Cc1ccc(N2C(=O)c3ccc(C(=O)O)cc3C2=O)nc1 | -10.6
COc1cc(NC(=O)c2ccccc2I)ccc1NC(=O)c1ccco1 | 6.9
Oc1ccc(Cl)cc1-c1cc(-c2ccccc2)n[nH]1 | -7
CC/C(=N\NC(N)=O)C1CC(C(C)C)CC=C1C (centres undefined) | 1.8
O=C(CC1S\C(=N/N=C/C=C/c2ccccc2)NC1=O)Nc1ccc(Cl)cc1 (centres undefined) | 11
CC(=O)c1ccc(NC(=O)c2ccc3c(c2)C(=O)N(c2ccccc2C)C3=O)cc1 | -4.1
NC(=O)c1ccccc1N=Cc1ccco1 | -4.7
Cc1ccc(/C(O)=C2\C(=O)C(=O)N(CCCC(=O)O)C2c2ccccc2[N+](=O)[O-])cc1 (centres undefined) | 1.1
CC1CN(c2ccc([N+](=O)[O-])cc2)CCN1C(=O)c1ccc(F)cc1 (centres undefined) | 10.5
COc1ccccc1NC(=O)c1c(NC(C)=O)sc2c1CCCC2 | 9.6
O=C(Cn1nc2ccccc2n1)N/N=C/c1ccc(Cl)cc1Cl | -1.3
Cc1cc(C)cc(NC2=NC3(CCCCC3)N=C(N)N2)c1 | -4.5
O=C(NCCCN1CCOCC1)c1ccc(S(=O)(=O)N2CCOCC2)cc1 | -1.6
CC1=NN(c2ccc(C)cc2)C(=O)C1C(c1ccccc1O)c1c(C)[nH]n(-c2ccc(C)cc2)c1=O (centres undefined) | 7.3

SMILES | displacement [%]
Cc1ccc(S(=O)(=O)Nc2ccccc2C(=O)Nc2ccccc2)cc1 | 9.6
Cc1c(Cl)cccc1NC(=O)C1(C)CC2c3ccccc3C1c1ccccc12 (centres undefined) | -4.6
COc1ccccc1N1CCN(S(=O)(=O)c2c(C)cc(C)cc2C)CC1 | -14.2
O=C(NC1CCCC1)c1cc(-c2ccccc2Cl)nc2ccccc12 | -11.6
O=C(Nc1ccc(Oc2ccc(NC(=O)C3CCCCC3)cc2)cc1)C1CCCCC1 | 10.4
O=C(CCC1CCCC1)Nc1ccc2c(c1)oc1ccccc12 | 2.3
Cc1ccc(N2C(=O)CC(Sc3ncccn3)C2=O)cc1 (centres undefined) | 3
O=C(Nc1ccccc1F)c1ccccc1C(F)(F)F | -9.6
CC1CCCN(CN2C(=O)C(=O)c3cc(Br)ccc32)C1 (centres undefined) | 10.1
Cc1ccc(-n2c(C)cc(/C=N/NC(=O)c3cccnc3)c2C)c(C)c1 | -30.1
CCOC(=O)c1ccc(-c2ccc(C(=O)Nc3ccc(Cl)cc3)o2)cc1 | -1.3
CCOc1ccccc1C=Nc1ccccc1-c1ccccc1N=Cc1ccccc1OCC | -9.7
COC(=O)C(=C/C=C/C=C/N(C)C)C(=O)OC | 28.1
CC(C)Oc1cccc(C(=O)N2CCC(Cc3ccccc3)CC2)c1 | -5.1
CC1=CC(C)(C)N(CC(=O)c2ccc([N+](=O)[O-])cc2)c2ccccc21 | -3.5
Cc1ccc(-c2nnc(-c3cccc(F)c3)o2)cc1 | 3.9
O=C1C2C3C=CC(C4CC34)C2C(=O)N1CCc1ccccc1 (centres undefined) | 0.1
CCOC(=O)c1c(NC(=O)C(C)Oc2ccc(OC)cc2)sc2c1CCC2 (centres undefined) | -2.2
O=S(=O)(Nc1cc(Cl)c(O)c2ccccc12)c1ccc2ccccc2c1 | 44
O=[N+]([O-])c1ccc(Cl)c(S(=O)(=O)Nc2cc(Cl)ccc2Cl)c1 | 6.1
O=C(COc1ccc(Br)cc1)N1CCc2ccccc2C1 | -1.7
COc1ccc(N(CC(N)=O)S(=O)(=O)c2ccccc2)cc1 | 8.9

SMILES | displacement [%]
Cc1nnc(SCC(=O)N2c3ccccc3C(C)(c3ccc(Br)cc3)CC2(C)C)s1 (centres undefined) | 7
CCOc1ccccc1N1CCN(C(=O)c2cc(-c3ccccc3)nc3ccccc23)CC1 | 24.7
CC(C)CC(=O)N1c2ccccc2NC2=C(C(=O)CC(C)(C)C2)C1c1ccc2c(c1)OCO2 (centres undefined) | -19.7
Brc1ccc(CN2CCN(Cc3ccccn3)CC2)cc1 | -21.7
COC(=O)c1c(NC(=O)c2cccc(Cl)c2)sc(C)c1C | 39.9
COc1cc(C(=O)N/C(=C/c2ccco2)C(=O)Nc2ccccc2)cc(OC)c1OC | 5.4
O=C1NC(=O)N(c2ccccc2)C(=O)/C1=C/c1ccc(-c2ccccc2C(=O)O)o1 | -17.2
CS(=O)(=O)N1CCN(Cc2ccccc2[N+](=O)[O-])CC1 | 12.7
CC(C)OCCCNC(=O)C(=O)Nc1cccc(Cl)c1Cl | 0.8
Cc1cccc(C)c1NC(=O)C1CC(=O)N(c2ccc(Br)cc2)C1 (centres undefined) | 7.3
COc1ccc(S(=O)(=O)NCCc2ccccc2)cc1OC | 3.9
Cc1ccc(/C(O)=C/c2nc3ccccc3oc2=O)o1 | 116
CCOC(=O)C1=C(c2ccccc2)N=c2s/c(=C\c3ccco3)c(=O)n2C1c1cccs1 (centres undefined) | -11
COc1ccccc1-c1cc(C(=O)O)c2ccccc2n1 | -6
COc1ccc(S(=O)(=O)N(CC(N)=O)Cc2ccccc2)cc1 | -15
CC(C)=CCC/C(C)=C/CC(C)(C)C1OCCC(C)O1 (centres undefined) | 14.1
COc1ccccc1OCC(=O)Nc1ccc2c(c1)OCO2 | 11.8
O=C(O)c1ccc([N+](=O)[O-])cc1C(=O)c1ccccc1 | -12.3
COc1cc(-c2nc(-c3ccccc3)c(-c3ccccc3)[nH]2)ccc1OCC(=O)O | 2.4
COc1cc2c(cc1OC)-c1nnc(C)n1C1(CCCC1)C2 | 0
COc1ccccc1/C=C1/SC(=Nc2ccc(F)cc2)NC1=O | 161
O=C(Nc1cc([N+](=O)[O-])ccc1C(=O)Nc1ccncc1)c1ccccc1 | 12.9

SMILES | displacement [%]
O=C(COC(=O)c1ccccc1NC(=O)c1ccccc1)c1ccc(Br)cc1 | 4.7
Cc1cc(C)cc(NCc2ccccn2)c1 | 24.9
c1ccc(CNc2ccccn2)cc1 | 7.1
CCCOc1cccc(C(=O)Nc2nc(-c3ccc(C)cc3)cs2)c1 | -6.9
COC(=O)c1cc(NC(=O)c2cc(I)ccc2Cl)cc(C(=O)OC)c1 | 12.9
COc1ccc(C)cc1NS(=O)(=O)c1ccc(NC(C)=O)cc1 | 0.2
Cn1cnnc1Sc1nc2c(c(=O)n(C)c(=O)n2C)n1Cc1ccc(Cl)cc1Cl | 10.3
C=CCn1cc(C)c(=O)n(CC=C)c1=O | 9.5
COc1cc(NC(=O)COc2ccc(F)cc2)c(OC)cc1NC(C)=O | -2.3
O=C(Nc1ccc2c(c1)ncn2-c1ccccc1)c1ccccc1 | -2
CC1=C(C(=O)Nc2cc(Cl)ccc2C)C(c2ccc(N(C)C)cc2)NC(=S)N1 (centres undefined) | 11.3
S=C(NCCc1c[nH]c2ccccc12)Nc1ccc(Cl)cc1Cl | -7.5
C=C(C)CN1C(=O)c2ccccc2C1=O | 4.5
CCOC(=O)c1c[nH]c2ccc(OC)cc2c1=O | 3.8
CC(=O)c1ccc(NC(=O)COc2ccc(C)cc2)cc1 | 1.2
O=C1CC(N(Cc2ccco2)C(=S)NCCc2ccccc2)C(=O)N1c1ccc(F)cc1 (centres undefined) | 27.4
Cc1ccc(OCC(=O)N/N=C\c2ccc[nH]2)cc1 | 9.5
N#Cc1c(N)c(C#N)c(-c2ccco2)c2c1CCCC2 | -3.3
CCOc1ccc(-n2nc3ccc(NC(=O)c4ccc([N+](=O)[O-])o4)cc3n2)cc1 | 8.7
CCn1c(O)c(/C=C2\C=Nc3ccccc32)sc1=S | -1
CCCCS(=O)(=O)N1CN(S(=O)(=O)CCCC)C2NC(=O)NC21 (centres undefined) | 1.2
